Assay results from publication PMC2651629, “Structure of the Archaeal Pab87 Peptidase Reveals a Novel Self-Compartmentalizing Protease Family” (PLoS ONE, 2009).

Target: T1, Pab87 (Pyrococcus abyssi, UniProt Q9V2D6)
T1 construct: gene pbp; model residues 1-447
T1 sequence (Q9V2D6 1-447): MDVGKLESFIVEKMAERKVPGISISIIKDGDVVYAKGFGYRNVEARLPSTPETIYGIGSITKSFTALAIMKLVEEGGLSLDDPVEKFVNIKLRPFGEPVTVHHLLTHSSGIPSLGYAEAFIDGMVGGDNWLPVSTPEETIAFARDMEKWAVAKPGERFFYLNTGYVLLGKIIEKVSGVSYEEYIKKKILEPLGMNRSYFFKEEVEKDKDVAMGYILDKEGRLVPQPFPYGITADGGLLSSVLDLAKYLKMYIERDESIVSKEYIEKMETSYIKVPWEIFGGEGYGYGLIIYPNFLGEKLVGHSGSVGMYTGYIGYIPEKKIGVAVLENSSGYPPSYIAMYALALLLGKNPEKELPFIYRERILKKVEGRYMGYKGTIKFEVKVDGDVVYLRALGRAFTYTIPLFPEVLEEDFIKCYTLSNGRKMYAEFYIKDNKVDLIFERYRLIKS
Assay: p-nitroaniline release at […] nm
Format: biochemical
Conditions: 20 mM Tris pH 8.0, 40-90 °C; aminopeptidase; high Km, not determined, only kcat/Km given

SMILES: C[C@@H](N)C(=O)Nc1ccc([N+](=O)[O-])cc1 [D-Ala-p-nitroanilide]
- p-nitroaniline release at 405 nm: the enzyme shows a preference for the substrate with a D configuration
